Assay results as given in PubChem BioAssay AID493208 (National Center for Advancing Translational Sciences (NCATS), 2011).
The campaign covered roughly 44,000 compounds. About 340 (0.77%) were called active. Roughly 5% stayed inconclusive and do not appear here. The call rests on the fitted dose curve; in most records, active means well fitted inhibition curve with a large enough effect; inconclusive means small, poorly fitted or top-dose-only effect; inactive means flat fitted curve, though single readings scatter. Some of the results follow.

Assay: Acumen qHTS Assay for Inhibitors of the mTORC1 Signaling Pathway in MEF (Tsc2-/-, p53-/-) Cells: Sytravon;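 further: plate controls were DMSO for no effect and rapamycin for full effect; nearly all actives have a fitted effect of over 50% in size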
Conditions: phospho-rpS6 immunofluorescence/PI, 24 h; series mostly up to 38.3 µM; activity change, negative = inhibition: at the top concentration
Summary of the method: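 Plate MEFs (Tsc2-/-, p53-/-, empty vector) in DMEM/10% FBS; after 24 h add compound, incubate 24 h at 37 degree Celsius; fix in PFA/TX-100, block, stain phospho-rpS6 and 10 uM PI; scan at 488 nm; report % positive cells.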

Activity change, negative = inhibition, inactive:
Cc1ccc(OCCSc2nc3ccc(NC(=O)c4ccco4)cc3s2)cc1 -9.53%
O=C1CC(=O)Nc2cc(S(=O)(=O)Nc3ccc(F)cc3Cl)ccc2N1 2.64%
CCOc1ccc2nc(N(Cc3cccnc3)C(C)=O)sc2c1 -4.05%
COc1ccc(-c2cc3ccc(O)c(CN4CCCCC4C)c3oc2=O)cc1OC (stereo not given) 3.65%
CC(=O)N1CCc2cc(S(=O)(=O)NC(Cc3ccccc3)C(=O)NCc3ccccc3Cl)ccc21 (stereo not given) 2.14%
CCCc1ccc(OC(C)c2nc(-c3ccc(-n4cccc4)cc3)no2)cc1 (stereo not given) 3.4%
O=C(CCNS(=O)(=O)c1ccc2c(c1)CCN2C(=O)C1CC1)N1CCN(c2cccc(C(F)(F)F)c2)CC1 -17.1%
CCOC(=O)C1CCN(C(=O)CSc2n[nH]c(-c3ccc(OC)cc3)n2)CC1 0.453%
COc1ccccc1N1CCN(C(=O)c2cc3c(-c4ccccc4F)nn(C)c3s2)CC1 1.42%
Cc1ccc(-n2c(=O)c3c(cnn3C)n(CC(=O)Nc3cccc(C)c3)c2=O)cc1 -0.962%
Cn1c(=O)n(C)c2cc(N3CCOCC3)c(NS(=O)(=O)c3ccc(Cl)cc3)cc21 -12.8%
Cc1cc(=O)n(Cc2c(F)cccc2Cl)c2c1c(C)nn2C -3.27%
CCOC(=O)Cn1c(CN2CCN(c3ccc(OC)cc3)CC2)nc2c1c(=O)[nH]c(=O)n2C 2.31%
COc1ccc(CCNC(=O)Cn2c(-c3ccc(F)cc3)cc(C(C)=O)c2C)cc1OC -3.32%
COc1ccc2c(c1)CC(C(=O)NCCc1ccc(S(N)(=O)=O)cc1)CO2 (stereo not given) -4.37%
Cc1ccc(C)c(OC(=O)CSc2nnc(-c3cccs3)o2)c1 0.666%
CCCC(=O)Nc1cc(-c2nnc3c4ccccc4c(C)nn23)ccc1C 2.67%
COc1cc2ccccc2cc1C(=O)N1CCN(c2nc3c(F)cc(F)cc3s2)CC1 1.1%
CCOc1ccc(CNC(=O)C2CCCN(c3nn4cc(-c5ccc(F)cc5)nc4s3)C2)cc1 (stereo not given) -0.522%
COc1ccc(N2CCN(CCCNC(=O)c3ccc4nc(Cc5ccccc5)oc4c3)CC2)cc1 -4.15%
COc1ccc(-n2c(=O)c3c(c4cc(OC)ccc4n3C)n(CC(=O)N3CCCC3)c2=O)cc1 -0.656%
CCc1ccc(NC(=O)CCCc2nnc3n(CCCOC)c(=O)c4sccc4n23)cc1 4.37%
Cc1ccc(NC(=O)C(C)Sc2nc3c(c(=O)[nH]2)CCCC3)cc1Cl (stereo not given) -0.0954%
CSc1cccc(NC(=O)CN2C(=O)CCc3cc(S(=O)(=O)N4CCCCC4)ccc32)c1 1.2%
Cc1cc(C)cc(NC(=O)c2cccc(C(=O)Nc3cc(C)cc(C)c3)c2)c1 16.4%
CCOc1ccccc1NC(=O)CSc1ccc2nc(-c3ccccc3)cn2n1 1.69%
COC(=O)c1ccccc1NC(=O)Cn1c(=O)n(CCCC(=O)NCc2ccccc2Cl)c(=O)c2ccccc21 2.37%
O=C(Cn1cnc2c(nc3n2CCCCC3)c1=O)Nc1cccc(C(F)(F)F)c1 -0.105%
O=C(COc1ccccc1Cl)N(Cc1cccc(F)c1)C1CCS(=O)(=O)C1 (stereo not given) 6.28%
CCc1cccc(CC)c1NC(=O)Cn1nnc2sc3c(c2c1=O)CCCC3 -22.5%
Cc1ccc(Cc2nc3ccccc3nc2SCC(=O)NCc2ccccc2Cl)cc1 0%
CCOC(=O)c1c(NC(=O)COc2ccc(C(C)(C)C)cc2)sc2c1CCCC2 6.18%
Cc1ccc(NC(=O)c2c(C)nn(-c3ccccc3)c2-n2cccc2)c(Cl)c1 -1.8%
Cc1ccc(N2C(=O)CCSC23C(=O)N(Cc2ccc(F)cc2)c2ccccc23)cc1 (stereo not given) -4.06%
CCOc1cccc(C(=O)N(Cc2ccc(F)cc2)Cc2ccco2)c1 3.56%
O=C1CC(c2ccc(F)cc2F)c2cc3c(cc2N1)OCO3 (stereo not given) -12.4%
COc1ccc(Cl)cc1NC(=O)C1CCN(S(=O)(=O)c2ccc(F)cc2)CC1 -0.48%
COc1ccc(C(=O)N(c2ccc(C)cc2)S(=O)(=O)c2ccc(C)cc2)cc1 -16.4%
COc1ccc(OC)c(NC(=O)Cn2c(=O)n(-c3ccc(Cl)cc3)c(=O)c3c(C)c(C)sc32)c1 0.257%
Cc1ccc(N2C(=O)CS(=O)(=O)C23C(=O)N(Cc2ccc(Cl)cc2)c2ccccc23)cc1C (stereo not given) -5.77%
COCCn1c(SCC(=O)c2ccc(F)cc2)nc2cc(C(=O)NC3CCCC3)ccc2c1=O 3.97%
CC1CCN(C(=O)CSc2nnc(NC(=O)Nc3ccccc3)s2)CC1 2.77%
COC(=O)c1ccccc1NC(=O)Cn1c(CCC(=O)O)ccc1-c1ccc(C)cc1 2.25%
Cc1ccc2c(c1)N(C(=O)CCC(=O)NCc1cccs1)CC(C)O2 (stereo not given) -9.2%
CCOC(=O)C1CCN(C(=O)Cn2ncc3c4ccccc4n(Cc4ccccc4)c3c2=O)CC1 -0.0054%
Cc1cccc(CC(=O)Nc2c(C(=O)Nc3cccc(F)c3)oc3ccccc23)c1 1.38%
Cc1ccc(NC(=O)CCSc2nc(-c3ccc4c(c3)OCO4)cc(C(F)(F)F)n2)c(C)c1 -10.6%
CCOc1ccccc1C(=O)NCc1ccc2c(c1)CCN2C(=O)c1ccccc1 -1.58%
Cc1cccc(Nc2nc3c(S(=O)(=O)c4ccc(Br)cc4)nnn3c3ccsc23)c1C 4.62%
Cc1cc(C)c2oc(-c3cccc(NC(=O)COc4ccccc4Cl)c3C)nc2c1 1.53%
CC1=C(C(=O)Nc2cccnc2)C(c2ccccc2Cl)n2nc(-c3ccccc3)nc2N1 (stereo not given) 3.76%
Cc1cc(NC(=O)CSc2ncc(C(=O)Nc3ccc(C)c(C)c3)c(=O)n2C)no1 -8.89%
CS(=O)(=O)c1ncc(Cl)c(C(=O)Nc2c(C(=O)c3ccc(Cl)cc3)oc3ccccc23)n1 0.637%
COc1cccc(-c2nc3c(C#N)c[nH]n3c2NC2CCC(C)CC2)c1 (stereo not given) -21.6%
COc1ccc(CCNC(=O)c2ccc(Cn3c(SCC(=O)NCCC(C)C)nc4cc5c(cc4c3=O)OCO5)cc2)cc1OC -4.91%
Clc1cccc(-n2ncc3c(NCCCN4CCOCC4)ncnc32)c1 14.2%
Cc1ccc2nc(CN3CCN(S(=O)(=O)c4ccc(C)c(C)c4)CC3)oc2c1 9.74%
CC(=O)c1c(C)n(-c2ccc(C)cc2)c2ccc(OC(=O)COc3ccccc3)cc12 -11.3%
O=C(Nc1ccc2oc(-c3ccc4ccccc4c3)nc2c1)c1cc(Cl)ccc1Cl 4.84%
Cc1ccc(C2CC(=O)n3nc(-c4cccc(C)c4)nc3S2)cc1 (stereo not given) 3.87%
COc1cc(-c2ccno2)ccc1S(=O)(=O)N1CCN(c2ccccc2)CC1 -8.74%
CC(C)C(=O)Nc1nnc(SCc2cc(=O)n3ccccc3n2)s1 -13.7%
CN(C)c1ccc(CNC(=O)C2CCN(S(=O)(=O)c3ccc4[nH]c(=O)ccc4c3)CC2)cc1 -1%
CC(C)C(=O)Nc1cccc(C(=O)Nc2nnc(C(F)(F)F)s2)c1 -3.24%
CCOc1ccccc1NC(=O)CCc1c(C)nc2cc(-c3ccccc3)nn2c1C -5.43%
Cc1ccc(NC(=O)CN(c2ccc(C)cc2)S(=O)(=O)c2cccc3nonc23)cc1 5.62%
CCOCCCn1c(=N)c(C(=O)NCc2ccccc2)cc2c(=O)n3ccccc3nc21 -1.13%
COc1cccc(NC(=O)Cn2c(=O)n(CCc3cccc(C)c3)c(=O)c3ccccc32)c1 0.771%
Cc1c2cnn(-c3ccccc3)c(=O)c2c(C)n1C(C)C(=O)NCc1cccc(Br)c1 (stereo not given) -8.6%
Cc1cccc(NC(=O)c2c(NC(=O)c3ccco3)sc3c2CCC(C)C3)c1 (stereo not given) -1.12%
Cc1ccc(NC(=O)Cn2nc(-c3ccccc3)nc(Cc3ccccc3)c2=O)cc1 5.16%
COc1cccc(CNC(=O)c2ccc3c(c2)nc2n3CCC(C)C2)c1 (stereo not given) 5.15%
COc1ccc(-n2nc(-c3ccc(C)cc3)c3cnc4cc(F)c(F)cc4c32)cc1 0.47%
Cc1ccccc1C(=O)Nc1ccccc1-c1nc(-c2ccccc2)no1 -2.27%
Cc1nc(-c2cccc(F)c2)sc1CCNC(=O)C(=O)Nc1ccc2c(c1)OCCO2 0.522%
CCc1nc2nc(C)c(NS(=O)(=O)c3ccc(F)c(C)c3)c(=O)n2[nH]1 1.73%
CCOc1ccc2nc(N3CCCC(C(=O)NCCc4ccc(C)cc4)C3)sc2c1 (stereo not given) -5.75%
Cc1ccc(NC(=O)CSc2nc3ccccc3n2CC(=O)N(C)C2CCCCC2)cc1C 0%
CC(C(=O)Nc1ccccc1)n1nnc2sc3c(c2c1=O)CCCC3 (stereo not given) -1.89%
CCCCn1c(CNC(=O)C23CC4CC(CC(C4)C2)C3)nnc1SCC(=O)Nc1ccc(F)cc1 -2.7%
Cc1cccc(NC(=O)Nc2nnc(N3CCCC3)s2)c1 -0.473%
Cc1cccc(Cn2c(=O)n(Cc3ccccc3)c(=O)c3sc4ccccc4c32)c1 0.652%
Cc1cc(C(=O)NCc2ccccc2)c2c(C)nn(-c3cccc(Cl)c3C)c2n1 -10.5%
Cc1ccc(NC(=O)C2CCCN2S(=O)(=O)c2ccc3nc(-c4ccccc4)[nH]c3c2)cc1C (stereo not given) -29.4%
Cc1ccc(S(=O)(=O)C(CNS(=O)(=O)c2ccc(F)c(C)c2)c2cccs2)cc1 (stereo not given) -3.86%
O=C(NCCS(=O)(=O)N1CCN(c2ccccc2F)CC1)C1CC(=O)N(c2ccc(F)cc2)C1 (stereo not given) -5.18%
CCc1ccccc1N(CC)C(=O)Cn1nc(Cc2ccncc2)c2ccccc2c1=O 2.49%
Cc1ccc(OCC(=O)Nc2cccc3ccc(C)nc23)c(C)c1 -5.72%
Cc1cccc(NC(=O)COc2ccc3oc4c(c3c2)CCCC4)c1 6.54%
COc1ccc(CNC(=O)C(=O)NCC(c2cccs2)S(=O)(=O)c2cccs2)cc1 (stereo not given) 1.47%
O=C(CCc1nc(-c2cccs2)no1)Nc1ccc([N+](=O)[O-])cc1 -0.356%
O=C(NCc1ccccc1Cl)c1ccc(-n2cnc3cccnc32)cc1 1.51%
CCOc1ccccc1NC(=O)Cn1nc(N2CCN(c3ccccc3)CC2)ccc1=O -2.69%
Cn1c(/C(C#N)=C/c2ccc(C(F)(F)F)cc2)nc2ccccc21 8.09%
Cc1cn2c(=O)c(S(=O)(=O)NCc3ccc(F)cc3)c(C)nc2s1 -0.834%
